{"source": "the supplement of paper PMC11876631", "proteins": {"B1": {"name": "pssA I370D (protein)", "chain": "MLSKFKRNKHQQHLAQLPKISQSVDDVDFFYAPADFRETLLEKIASAKQRICIVALYLEQDDGGKGILNALYEAKRQRPELDVRVLVDWHRAQRGRIGAAASNTNADWYCRMAQENPGVDVPVYGVPINTREALGVLHFKGFIIDDSVLYSGASLNDVYLHQHDKYRYDRYHLIRNRKMSDIMFEWVTQNIMNGRGVNRLDDVNRPKSPEIKNDIRLFRQELRDAAYHFQGDADNDQLSVTPLVGLGKSSLLNKTIFHLMPCAEQKLTICTPYFNLPAILVRNIIQLLREGKKVEIIVGDKTANDFYIPEDEPFKIIGALPYLYEINLRRFLSRLQYYVNTDQLVVRLWKDDDNTYHLKGMWVDDKWMLDTGNNLNPRAWRLDLENAILIHDPQLELAPQREKELELIREHTTIVKHYRDLQSIADYPVKVRKLIRRLRRIRIDRLISRIL"}, "B2": {"name": "pssA I370P (protein)", "chain": "MLSKFKRNKHQQHLAQLPKISQSVDDVDFFYAPADFRETLLEKIASAKQRICIVALYLEQDDGGKGILNALYEAKRQRPELDVRVLVDWHRAQRGRIGAAASNTNADWYCRMAQENPGVDVPVYGVPINTREALGVLHFKGFIIDDSVLYSGASLNDVYLHQHDKYRYDRYHLIRNRKMSDIMFEWVTQNIMNGRGVNRLDDVNRPKSPEIKNDIRLFRQELRDAAYHFQGDADNDQLSVTPLVGLGKSSLLNKTIFHLMPCAEQKLTICTPYFNLPAILVRNIIQLLREGKKVEIIVGDKTANDFYIPEDEPFKIIGALPYLYEINLRRFLSRLQYYVNTDQLVVRLWKDDDNTYHLKGMWVDDKWMLPTGNNLNPRAWRLDLENAILIHDPQLELAPQREKELELIREHTTIVKHYRDLQSIADYPVKVRKLIRRLRRIRIDRLISRIL"}, "B3": {"name": "pssA L369A (protein)", "chain": "MLSKFKRNKHQQHLAQLPKISQSVDDVDFFYAPADFRETLLEKIASAKQRICIVALYLEQDDGGKGILNALYEAKRQRPELDVRVLVDWHRAQRGRIGAAASNTNADWYCRMAQENPGVDVPVYGVPINTREALGVLHFKGFIIDDSVLYSGASLNDVYLHQHDKYRYDRYHLIRNRKMSDIMFEWVTQNIMNGRGVNRLDDVNRPKSPEIKNDIRLFRQELRDAAYHFQGDADNDQLSVTPLVGLGKSSLLNKTIFHLMPCAEQKLTICTPYFNLPAILVRNIIQLLREGKKVEIIVGDKTANDFYIPEDEPFKIIGALPYLYEINLRRFLSRLQYYVNTDQLVVRLWKDDDNTYHLKGMWVDDKWMAITGNNLNPRAWRLDLENAILIHDPQLELAPQREKELELIREHTTIVKHYRDLQSIADYPVKVRKLIRRLRRIRIDRLISRIL"}, "B4": {"name": "pssA L369W (protein)", "chain": "MLSKFKRNKHQQHLAQLPKISQSVDDVDFFYAPADFRETLLEKIASAKQRICIVALYLEQDDGGKGILNALYEAKRQRPELDVRVLVDWHRAQRGRIGAAASNTNADWYCRMAQENPGVDVPVYGVPINTREALGVLHFKGFIIDDSVLYSGASLNDVYLHQHDKYRYDRYHLIRNRKMSDIMFEWVTQNIMNGRGVNRLDDVNRPKSPEIKNDIRLFRQELRDAAYHFQGDADNDQLSVTPLVGLGKSSLLNKTIFHLMPCAEQKLTICTPYFNLPAILVRNIIQLLREGKKVEIIVGDKTANDFYIPEDEPFKIIGALPYLYEINLRRFLSRLQYYVNTDQLVVRLWKDDDNTYHLKGMWVDDKWMWITGNNLNPRAWRLDLENAILIHDPQLELAPQREKELELIREHTTIVKHYRDLQSIADYPVKVRKLIRRLRRIRIDRLISRIL"}, "B5": {"name": "pssA M260P (protein)", "chain": "MLSKFKRNKHQQHLAQLPKISQSVDDVDFFYAPADFRETLLEKIASAKQRICIVALYLEQDDGGKGILNALYEAKRQRPELDVRVLVDWHRAQRGRIGAAASNTNADWYCRMAQENPGVDVPVYGVPINTREALGVLHFKGFIIDDSVLYSGASLNDVYLHQHDKYRYDRYHLIRNRKMSDIMFEWVTQNIMNGRGVNRLDDVNRPKSPEIKNDIRLFRQELRDAAYHFQGDADNDQLSVTPLVGLGKSSLLNKTIFHLPPCAEQKLTICTPYFNLPAILVRNIIQLLREGKKVEIIVGDKTANDFYIPEDEPFKIIGALPYLYEINLRRFLSRLQYYVNTDQLVVRLWKDDDNTYHLKGMWVDDKWMLITGNNLNPRAWRLDLENAILIHDPQLELAPQREKELELIREHTTIVKHYRDLQSIADYPVKVRKLIRRLRRIRIDRLISRIL"}, "B6": {"name": "pssA V54A (protein)", "chain": "MLSKFKRNKHQQHLAQLPKISQSVDDVDFFYAPADFRETLLEKIASAKQRICIAALYLEQDDGGKGILNALYEAKRQRPELDVRVLVDWHRAQRGRIGAAASNTNADWYCRMAQENPGVDVPVYGVPINTREALGVLHFKGFIIDDSVLYSGASLNDVYLHQHDKYRYDRYHLIRNRKMSDIMFEWVTQNIMNGRGVNRLDDVNRPKSPEIKNDIRLFRQELRDAAYHFQGDADNDQLSVTPLVGLGKSSLLNKTIFHLMPCAEQKLTICTPYFNLPAILVRNIIQLLREGKKVEIIVGDKTANDFYIPEDEPFKIIGALPYLYEINLRRFLSRLQYYVNTDQLVVRLWKDDDNTYHLKGMWVDDKWMLITGNNLNPRAWRLDLENAILIHDPQLELAPQREKELELIREHTTIVKHYRDLQSIADYPVKVRKLIRRLRRIRIDRLISRIL"}, "B7": {"name": "pssA V54P (protein)", "chain": "MLSKFKRNKHQQHLAQLPKISQSVDDVDFFYAPADFRETLLEKIASAKQRICIPALYLEQDDGGKGILNALYEAKRQRPELDVRVLVDWHRAQRGRIGAAASNTNADWYCRMAQENPGVDVPVYGVPINTREALGVLHFKGFIIDDSVLYSGASLNDVYLHQHDKYRYDRYHLIRNRKMSDIMFEWVTQNIMNGRGVNRLDDVNRPKSPEIKNDIRLFRQELRDAAYHFQGDADNDQLSVTPLVGLGKSSLLNKTIFHLMPCAEQKLTICTPYFNLPAILVRNIIQLLREGKKVEIIVGDKTANDFYIPEDEPFKIIGALPYLYEINLRRFLSRLQYYVNTDQLVVRLWKDDDNTYHLKGMWVDDKWMLITGNNLNPRAWRLDLENAILIHDPQLELAPQREKELELIREHTTIVKHYRDLQSIADYPVKVRKLIRRLRRIRIDRLISRIL"}, "B8": {"name": "purA L53A (protein)", "chain": "MGNNVVVLGTQWGDEGKGKIVDLLTERAKYVVRYQGGHNAGHTLVINGEKTVAHLIPSGILRENVTSIIGNGVVLSPAALMKEMKELEDRGIPVRERLLLSEACPLILDYHVALDNAREKARGAKAIGTTGRGIGPAYEDKVARRGLRVGDLFDKETFAEKLKEVMEYHNFQLVNYYKAEAVDYQKVLDDTMAVADILTSMVVDVSDLLDQARQRGDFVMFEGAQGTLLDIDHGTYPYVTSSNTTAGGVATGSGLGPRYVDYVLGILKAYSTRVGAGPFPTELFDETGEFLCKQGNEFGATTGRRRRTGWLDTVAVRRAVQLNSLSGFCLTKLDVLDGLKEVKLCVAYRMPDGREVTTTPLAADDWKGVEPIYETMPGWSESTFGVKDRSGLPQAALNYIKRIEELTGVPIDIISTGPDRTETMILRDPFDA"}, "B9": {"name": "purA L53W (protein)", "chain": "MGNNVVVLGTQWGDEGKGKIVDLLTERAKYVVRYQGGHNAGHTLVINGEKTVWHLIPSGILRENVTSIIGNGVVLSPAALMKEMKELEDRGIPVRERLLLSEACPLILDYHVALDNAREKARGAKAIGTTGRGIGPAYEDKVARRGLRVGDLFDKETFAEKLKEVMEYHNFQLVNYYKAEAVDYQKVLDDTMAVADILTSMVVDVSDLLDQARQRGDFVMFEGAQGTLLDIDHGTYPYVTSSNTTAGGVATGSGLGPRYVDYVLGILKAYSTRVGAGPFPTELFDETGEFLCKQGNEFGATTGRRRRTGWLDTVAVRRAVQLNSLSGFCLTKLDVLDGLKEVKLCVAYRMPDGREVTTTPLAADDWKGVEPIYETMPGWSESTFGVKDRSGLPQAALNYIKRIEELTGVPIDIISTGPDRTETMILRDPFDA"}, "B10": {"name": "purA L53Q (protein)", "chain": "MGNNVVVLGTQWGDEGKGKIVDLLTERAKYVVRYQGGHNAGHTLVINGEKTVQHLIPSGILRENVTSIIGNGVVLSPAALMKEMKELEDRGIPVRERLLLSEACPLILDYHVALDNAREKARGAKAIGTTGRGIGPAYEDKVARRGLRVGDLFDKETFAEKLKEVMEYHNFQLVNYYKAEAVDYQKVLDDTMAVADILTSMVVDVSDLLDQARQRGDFVMFEGAQGTLLDIDHGTYPYVTSSNTTAGGVATGSGLGPRYVDYVLGILKAYSTRVGAGPFPTELFDETGEFLCKQGNEFGATTGRRRRTGWLDTVAVRRAVQLNSLSGFCLTKLDVLDGLKEVKLCVAYRMPDGREVTTTPLAADDWKGVEPIYETMPGWSESTFGVKDRSGLPQAALNYIKRIEELTGVPIDIISTGPDRTETMILRDPFDA"}, "B11": {"name": "purA L264A (protein)", "chain": "MGNNVVVLGTQWGDEGKGKIVDLLTERAKYVVRYQGGHNAGHTLVINGEKTVLHLIPSGILRENVTSIIGNGVVLSPAALMKEMKELEDRGIPVRERLLLSEACPLILDYHVALDNAREKARGAKAIGTTGRGIGPAYEDKVARRGLRVGDLFDKETFAEKLKEVMEYHNFQLVNYYKAEAVDYQKVLDDTMAVADILTSMVVDVSDLLDQARQRGDFVMFEGAQGTLLDIDHGTYPYVTSSNTTAGGVATGSGLGPRYVDYVAGILKAYSTRVGAGPFPTELFDETGEFLCKQGNEFGATTGRRRRTGWLDTVAVRRAVQLNSLSGFCLTKLDVLDGLKEVKLCVAYRMPDGREVTTTPLAADDWKGVEPIYETMPGWSESTFGVKDRSGLPQAALNYIKRIEELTGVPIDIISTGPDRTETMILRDPFDA"}}, "note": "± gives the standard deviation of the averaged measurements. Laboratory Escherichia coli strains with one amino-acid change in an essential protein, pooled on minimal glucose agar with carbenicillin or gentamicin at twice the control MIC (plus kanamycin and chloramphenicol for the plasmids), 48 h. Fold change of barcode share against drug-free plates; higher = less susceptible. Active = above 20 in both replicates (the paper's putatively resistant). '<' = one read or none on drug, '>' = one read or none on a drug-free plate. Shares are relative, so most strains fall below 1 when a few take over. Listed are strains with at least 15 reads on both drug-free plates, and hits; most hits rest on fewer reference reads. Replicate rank correlation about 0.5. Edits are read from barcodes.", "data": [{"target": "Escherichia coli (laboratory strain)", "test": "barcode share on antibiotic plates over drug-free plates; higher = less susceptible", "conditions": "antibiotic: carbenicillin; 2× MIC (3.1 µg/mL)", "experimental": "(§1)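 A pool of E. coli strains, each edited to carry one amino-acid change in an essential protein, was grown for 48 h on minimal glucose agar with or without antibiotic; strain barcodes were sequenced; mean of two replicates.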", "values": [{"protein": "B1", "fold change of barcode share": "0.157 ± 0.036"}, {"protein": "B2", "fold change of barcode share": "0.394 ± 0.29"}, {"protein": "B3", "fold change of barcode share": "0.561 ± 0.17"}, {"protein": "B4", "fold change of barcode share": "0.242 ± 0.0031"}, {"protein": "B5", "fold change of barcode share": "0.62 ± 0.61"}, {"protein": "B6", "fold change of barcode share": "0.336 ± 0.031"}, {"protein": "B7", "fold change of barcode share": "0.285 ± 0.16"}, {"protein": "B8", "fold change of barcode share": "0.484 ± 0.23"}, {"protein": "B9", "fold change of barcode share": "> 154 [active]"}, {"protein": "B10", "fold change of barcode share": "0.506 ± 0.044"}, {"protein": "B11", "fold change of barcode share": "0.235 ± 0.16"}]}, {"target": "Escherichia coli (laboratory strain)", "test": "barcode share on antibiotic plates over drug-free plates; higher = less susceptible", "conditions": "antibiotic: gentamicin; 2× MIC (MIC 0.45 µg/mL)", "experimental": "as §1", "values": [{"protein": "B1", "fold change of barcode share": "< 0.0131"}, {"protein": "B2", "fold change of barcode share": "< 0.0143"}, {"protein": "B3", "fold change of barcode share": "< 0.0129"}, {"protein": "B4", "fold change of barcode share": "< 0.0169"}, {"protein": "B5", "fold change of barcode share": "< 0.015"}, {"protein": "B6", "fold change of barcode share": "< 0.0123"}, {"protein": "B7", "fold change of barcode share": "< 0.0152"}, {"protein": "B8", "fold change of barcode share": "< 0.0175"}, {"protein": "B10", "fold change of barcode share": "< 0.0115"}, {"protein": "B11", "fold change of barcode share": "< 0.017"}]}]}
